Measured values: publication PMC4336329 (PLoS ONE, 2015)
Among all 310,000 compounds or so, about 2,200 (0.71%) showed an effect of 50% or more. The effect is printed as a negative number. The list shows a part of the results.

The compounds below were run against human ether-à-go-go-related gene (hERG) potassium channel (human, UniProt Q12809) (assay: primary screen, population patch clamp on CHO cells stably expressing hERG).
human ether-à-go-go-related gene (hERG) potassium channel, sequence (Q12809 whole entry, looked up): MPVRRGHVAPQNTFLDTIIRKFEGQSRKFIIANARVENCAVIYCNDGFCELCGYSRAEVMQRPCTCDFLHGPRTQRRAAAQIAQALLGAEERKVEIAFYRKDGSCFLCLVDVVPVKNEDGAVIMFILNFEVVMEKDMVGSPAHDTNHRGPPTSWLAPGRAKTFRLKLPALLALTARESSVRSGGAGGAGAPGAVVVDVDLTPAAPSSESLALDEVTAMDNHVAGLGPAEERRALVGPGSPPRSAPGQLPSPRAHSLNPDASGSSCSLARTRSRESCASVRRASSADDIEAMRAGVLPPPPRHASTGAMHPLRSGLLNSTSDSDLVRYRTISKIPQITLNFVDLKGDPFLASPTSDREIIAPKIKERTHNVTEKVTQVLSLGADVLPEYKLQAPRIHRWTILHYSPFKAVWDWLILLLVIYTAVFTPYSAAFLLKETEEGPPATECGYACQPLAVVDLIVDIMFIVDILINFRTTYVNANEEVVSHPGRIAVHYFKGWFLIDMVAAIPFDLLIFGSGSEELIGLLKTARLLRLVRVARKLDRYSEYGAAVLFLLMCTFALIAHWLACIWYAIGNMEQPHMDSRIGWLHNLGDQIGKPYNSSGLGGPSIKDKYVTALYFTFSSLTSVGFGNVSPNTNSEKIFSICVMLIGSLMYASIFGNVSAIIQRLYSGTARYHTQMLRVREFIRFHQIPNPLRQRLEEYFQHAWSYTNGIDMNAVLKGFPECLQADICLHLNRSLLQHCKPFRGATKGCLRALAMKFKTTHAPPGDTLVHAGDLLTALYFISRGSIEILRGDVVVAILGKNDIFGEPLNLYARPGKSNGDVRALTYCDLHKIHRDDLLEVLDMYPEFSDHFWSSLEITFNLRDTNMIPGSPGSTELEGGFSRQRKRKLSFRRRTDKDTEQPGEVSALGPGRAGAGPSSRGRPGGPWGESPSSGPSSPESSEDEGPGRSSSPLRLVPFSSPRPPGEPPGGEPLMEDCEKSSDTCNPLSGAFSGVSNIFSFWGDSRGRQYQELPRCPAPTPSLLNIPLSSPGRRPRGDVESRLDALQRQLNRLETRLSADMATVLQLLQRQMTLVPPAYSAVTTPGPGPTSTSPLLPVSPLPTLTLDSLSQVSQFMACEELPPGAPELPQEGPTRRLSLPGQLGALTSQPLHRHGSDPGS

Row | SMILES | hERG current change (%, negative = inhibition) at 1uM [%]
1 | C[C@@H](NC(=O)c1[nH]cnc1C(=O)Nc1ccon1)c1ccccc1 | 12.7
2 | O=C(OCCCN1C(=O)c2ccccc2C1=O)c1ccco1 | -0.461
3 | CC(C(c1ccc2c(c1)OCO2)c1c(N)n(C)c(=O)n(C)c1=O)[N+](=O)[O-] (stereo not shown) | 7.38
4 | COc1ccccc1N1CCN(S(=O)(=O)c2cnc[nH]2)CC1 | 10.6
5 | C=Cn1cc[n+](CC(=O)c2ccc(OC)c(OC)c2)c1.[Br-] | 9.38
6 | COc1ccc(N2C(=O)C3C(C2=O)C2C=CC3C23CC3)c(OC)c1 (stereo not shown) | 20.4
7 | CCCCc1ncc(CN2CCN(Cc3ccc(C)cc3)C(CCO)C2)[nH]1 (stereo not shown) | -11.8
8 | O=C(CSc1ccc(-c2cccc([N+](=O)[O-])c2)nn1)N1CCCC1 | -12.9
9 | CSc1ccc(S(=O)(=O)NCCOc2ccccc2C)cc1 | 7.7
10 | c1ccc(CSc2ccc(-c3ccccn3)nn2)nc1 | 12.2
11 | Clc1ccc(-c2cnc3ccccc3n2)cc1 | 10.3
12 | Cc1cc(NC(=O)CCN2C(=O)C3C4C=CC(C4)C3C2=O)ccc1Br (stereo not shown) | -4.27
13 | O=C(CNC(=O)C12CC3CC(CC(C3)C1)C2)OCC(=O)N1CCCCC1 | 7.18
14 | COc1ccc(C(=O)NC2CC2)cc1OC1CCN(Cc2ccc(F)c(F)c2)CC1 | -70.2
15 | FC(F)(F)c1cnc(-c2cnc(-c3ccccn3)nc2)c(Cl)c1 | 4.72
16 | CCOc1ccc([C@@H]2CC=C(C(=O)O)CN2S(=O)(=O)c2ccc(C)cc2)cc1 | 6.85
17 | CCn1nc(C(=O)OCC(=O)N2CCc3ccccc32)c2ccccc2c1=O | 8.09
18 | Cc1ccc(C(c2nnnn2C2CCCC2)N2CCc3ccccc32)cc1 (stereo not shown) | 13.5
19 | CC(C)(C)C1CCc2c(sc(NC(=O)c3ccco3)c2C(N)=O)C1 (stereo not shown) | 14.1
20 | CCOC(=O)c1nnn(-c2nonc2-n2cccc2)c1CN1CCC(C(=O)OCC)CC1 | 0.713
21 | CCc1cccc(C)c1NC(=O)CCCN1C(=O)CN(C)C1=O | 5.09
22 | CC(=O)Nc1ccc2nc(C3CCCCC3)[nH]c2c1 | 9.15
23 | Cc1cc(NC(=O)c2ccc(Cl)cc2Cl)n(CCC#N)n1 | 8.49
24 | Cc1c(Cl)cccc1NC(=O)CCN1CCCCC1 | 3.01
25 | CCCn1cc(S(=O)(=O)c2ccc(F)cc2)c(=O)c2cc(OCC)ccc21 | 1.86
